# About 2,200 (0.71%) of roughly 310,000 compounds showed an effect of 50% or more. The effect is printed as a negative number. Some of the results follow.
# Target: human ether-à-go-go-related gene (hERG) potassium channel (human, UniProt Q12809)
# Experiment: primary screen, population patch clamp on CHO cells stably expressing hERG
# Sequence of human ether-à-go-go-related gene (hERG) potassium channel (Q12809 whole entry, looked up): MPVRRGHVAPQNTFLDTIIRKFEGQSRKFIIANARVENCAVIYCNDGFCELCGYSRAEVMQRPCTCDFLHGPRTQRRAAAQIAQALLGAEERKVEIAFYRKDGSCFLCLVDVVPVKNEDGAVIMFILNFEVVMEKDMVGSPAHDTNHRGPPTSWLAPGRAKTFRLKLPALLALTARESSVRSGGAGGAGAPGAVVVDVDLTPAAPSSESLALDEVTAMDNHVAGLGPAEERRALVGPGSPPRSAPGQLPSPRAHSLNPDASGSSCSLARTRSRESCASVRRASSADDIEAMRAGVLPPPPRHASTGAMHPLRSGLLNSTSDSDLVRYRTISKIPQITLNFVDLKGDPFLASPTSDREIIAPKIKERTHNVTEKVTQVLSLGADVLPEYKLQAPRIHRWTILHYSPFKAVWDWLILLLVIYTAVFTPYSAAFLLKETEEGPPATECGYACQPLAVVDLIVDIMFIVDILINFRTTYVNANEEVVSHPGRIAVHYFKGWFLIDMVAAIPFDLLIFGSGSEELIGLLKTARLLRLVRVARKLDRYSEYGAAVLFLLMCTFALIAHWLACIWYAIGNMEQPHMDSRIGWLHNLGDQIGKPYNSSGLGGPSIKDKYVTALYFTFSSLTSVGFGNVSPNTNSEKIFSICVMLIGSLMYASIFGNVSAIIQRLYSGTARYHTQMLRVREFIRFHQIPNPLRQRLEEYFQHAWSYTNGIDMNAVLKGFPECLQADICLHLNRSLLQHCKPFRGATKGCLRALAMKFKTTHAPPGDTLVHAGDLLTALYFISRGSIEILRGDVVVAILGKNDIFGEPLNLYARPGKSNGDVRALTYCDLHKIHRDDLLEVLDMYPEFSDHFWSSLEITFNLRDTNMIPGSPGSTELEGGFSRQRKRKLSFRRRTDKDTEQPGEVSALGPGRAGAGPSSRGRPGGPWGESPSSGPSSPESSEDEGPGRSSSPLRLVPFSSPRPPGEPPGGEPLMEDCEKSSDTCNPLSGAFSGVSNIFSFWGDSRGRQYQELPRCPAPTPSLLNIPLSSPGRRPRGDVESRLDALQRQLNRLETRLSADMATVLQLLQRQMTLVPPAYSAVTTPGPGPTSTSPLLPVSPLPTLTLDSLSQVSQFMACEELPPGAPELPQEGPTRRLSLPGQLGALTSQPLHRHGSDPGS
row,SMILES,"hERG current change (%, negative = inhibition) at 1uM [%]"
1,CCOc1ccccc1/C=C(/NC(=O)c1ccccc1)C(=O)N1CCCCC1,-24.7
2,CCCNC(=O)c1ccccc1NC(=O)CSCc1ccc(OC)cc1,24.5
3,CCC1CCCCN1C(=O)Cn1c(=O)n(CCC(=O)NCc2ccco2)c(=O)c2sccc21 (stereo not shown),8.58
4,Cc1ccc(CSCCNC(=O)/C=C/c2ccc(Cl)cc2)cc1,6.93
5,Cc1ccc(NC(=O)[C@H](NC(=O)[C@@H]2Cc3ccccc3CN2)c2ccccc2)c(C)c1,3.4
6,O=C(Nc1ccc2c(c1)OCCO2)N1CCN(Cc2ccccc2)CC1,10.4
7,CC(=O)Nc1ccc(S(=O)(=O)NCCc2ccccn2)cc1,9.03
8,COc1ccc2c(COC(=O)c3n[nH]c4ccccc34)cc(=O)oc2c1,-0.848
9,CCOc1ccc(NC(=O)CCNC(=O)c2ccc(Br)cc2)cc1,11.7
10,CN1CCN(C(=O)c2ccc3c(c2)NC(=O)/C(=C/c2ccccc2)S3)CC1,12.9
11,O=C(CNC(=O)C1CCCCC1)NC1=NCCS1,12.2
12,CCCCC(=O)Nc1ccc(C(=O)NNC(=O)CCCOc2ccc(Cl)cc2Cl)cc1,6.1
13,COC(=O)C(Cc1ccc(OC(=O)c2ccccc2C)cc1)N1Cc2ccccc2C1=O (stereo not shown),6.47
14,Cc1ccc(-n2ncc3c2CC(C)(C)CC3NC(=O)CCCN2CCCC2=O)cc1 (stereo not shown),10.8
15,CC1(C)Cc2[nH]c3ccccc3c2C(C)(C)N1.Cl,8.42
16,[Cl-].c1ccc(C[n+]2c(-c3ccccc3)csc2Nc2ccccc2)cc1,20.3
17,COc1ccc(OC)c(CN2CCCC(CCC(=O)N(C)CCc3ccccn3)C2)c1 (stereo not shown),9.19
18,O=C(C1CCCN(S(=O)(=O)c2ccc(Br)cc2)C1)N1CCOCC1 (stereo not shown),8.77
19,CCN(CC(=O)NCc1cccs1)C(=O)c1cccc(S(=O)(=O)Nc2cccc(C)c2)c1,7.8
20,Cc1ncc([N+](=O)[O-])n1CCOC(=O)c1ccc(Br)cc1,-1.68
21,Cc1ccc2c(c1)c1c(n2CC(O)CNC2CCCC2)CCCC1.O=C(O)C(=O)O (stereo not shown),8.68
22,COc1cc(C)ccc1OCc1cc(C(=O)N2CCC(c3ccc(F)cc3)C2)no1 (stereo not shown),8.54

row,SMILES,"hERG current change (%, negative = inhibition) at 1uM [%]"
1,N#CCCn1[nH]c(-c2ccccc2)cc1=O,9.2
2,COC(=O)[C@H](CC(C)C)NC(=O)NCCCc1ccccc1,9.37
3,Cc1sc2nc(CN3CCOCC3)nc(NCCc3ccccc3)c2c1C,-13.5
4,COc1nc(NS(=O)(=O)c2ccc(C)cc2)nc(C)c1Cl,4.32
5,COc1ccc(S(=O)(=O)Nc2cc(C(=O)NCCCN3CCOCC3)ccc2N2CCOCC2)cc1,23.7
6,CCc1ccc(-c2cn3c(n2)SCC3)cc1,14.8
7,COc1ccc(CCNC(=O)CSc2nc3[nH]ncc3c(=O)n2-c2cccc(C(F)(F)F)c2)cc1OC,21.4
8,N/C(CC(=O)NCCOc1ccccc1)=N\O,-5.86
9,COc1cccc(C(=O)Nc2ccccc2C(=O)N2CCCC2)c1,1.14
10,COc1ccc(OC)c(-c2cc(C(=O)N/N=C/c3cc(OC)c(OC)cc3OC)c3ccccc3n2)c1,10.2
11,O=C(Nc1ccccc1)N1CCN(c2ncccn2)CC1,6.7
12,CCOc1[nH]n(-c2ccccc2)c(=O)c1C=Nc1ccc(C)cc1,-22.1
13,O=C1ON=C(c2ccccc2[N+](=O)[O-])/C1=C/c1cccc([N+](=O)[O-])c1O,7.67
14,N=c1c(-c2nc3ccccc3[nH]2)cc(C(=O)c2cccs2)nn1-c1ccccc1,-2.22
15,CCOC(=O)C1(Cc2cccc(F)c2)CCN(C(=O)C2CCC2)CC1,10.1
16,Cc1ccc(C)n1-c1ccc(C(=O)N2CCOCC2)cc1,16.6
17,FC(F)Sc1ccc(N=C2NN=C(c3ccc4c(c3)OCCO4)CS2)cc1,4.45
18,CCC(C(=O)N1CCc2cc(OC)c(OC)cc2C1)c1ccccc1 (stereo not shown),16.3
19,CC(C)(C)c1nnc(NC(=O)c2cc(-c3ccccc3)nc3ccccc23)s1,1.65
20,COc1ccc(-c2csc3ncnc(Oc4ccc5c(C)cc(=O)oc5c4)c23)cc1,12.4
21,CCOc1ccccc1NC(=O)C(CC)Sc1nc2ccncc2[nH]1 (stereo not shown),0.26
22,CCOC(=O)N1CCN(C(=O)c2ccc3c(=O)n(-c4cc(OC)ccc4OC)c(=S)[nH]c3c2)CC1,16.3

row,SMILES,"hERG current change (%, negative = inhibition) at 1uM [%]"
1,Cc1cccc(NC(=O)c2cccc(N3C(=O)C4C5CCC(C5)C4C3=O)c2)c1C (stereo not shown),-4.35
2,Cc1cc2ccccn2c1C(=O)Nc1cccc(Cl)c1,33
3,COc1ccc(C2=NN(C(=O)CN3CCOCC3)C(c3nc4ccccc4[nH]3)C2)cc1 (stereo not shown),9.04
4,O=S(=O)([N-]c1nc2ccccc2nc1-[n+]1ccc(-c2ccncc2)cc1)c1ccccc1,3.21
5,CC1(C)Oc2ccc3ccc(=O)oc3c2-c2cnoc21,15.8
6,Cc1nn(Cc2ccc(C(=O)N3N=C(C(F)F)CC3(O)C(F)F)o2)c(C)c1[N+](=O)[O-] (stereo not shown),-1.34
7,Nc1c(N(Cc2ccco2)C(=O)COc2ccccc2Cl)c(=O)[nH]c(=O)n1Cc1ccccc1,1.81
8,CCOC(=O)CSc1nc(-c2ccncc2)ccc1C#N,-10.9
9,CCOC(=O)c1ccc2c(c1)NC(=O)C(N1CCN(c3ccc(OC)cc3)CC1)S2 (stereo not shown),7.56
10,Cc1ccc(C(c2nnnn2CC2CCCO2)N2CCN(C(=O)c3ccco3)CC2)cc1 (stereo not shown),8.83
11,COc1ccc2c(c1)C(=O)N(c1ccc(C)cc1C)C(=O)C2(C)C,14.2
12,CCCCn1c(N)c(N(CC(C)C)C(=O)CSc2ccccc2C)c(=O)[nH]c1=O,1.42
13,O=C(c1ccco1)N1CCN(Cc2cccc(F)c2)CC1,8.13
14,O=C(C(=O)N1CCN(c2ccccc2F)CC1)c1cn(CC(=O)N2CCOCC2)c2ccccc12,9.92
15,CC1CCN(C(c2ccc(N(C)C)cc2)c2nnnn2Cc2ccccc2)CC1 (stereo not shown),4.98
16,C=CCn1c(SCC(=O)Nc2ccc(N3CCOCC3)cc2)nnc1-c1ccco1,8.51
17,O=C(CCS(=O)(=O)c1ccc(Br)cc1)Nc1ccc2c(c1)OCO2,-1.98
18,Cn1nnnc1SCC(=O)NCc1ccco1,-5.51
19,CC(=O)c1cc(CN2CCC(n3nccc3NC(=O)c3ccccc3Cl)CC2)cs1,-40.5
20,CCOC(=O)C1CCN(/C=C2/C(=O)NC(=O)N(c3cccc(C)c3C)C2=O)CC1,12.6
21,COc1ccc2nc(-c3ccccc3)cc(C(=O)OCC(=O)N3CCCCC3)c2c1,2.2
22,CCOc1cc2[nH]c(=S)n(Cc3ccc(C(=O)NCCCN(CC)CC)cc3)c(=O)c2cc1OCC,11.9

row,SMILES,"hERG current change (%, negative = inhibition) at 1uM [%]"
1,CC(Sc1nnc(-c2ccccc2F)n1C1CC1)C(=O)NCc1ccco1 (stereo not shown),0.136
2,CCOCCCNC(=O)c1ccc(Cn2c(=S)[nH]c3c([nH]c4ccc(OC)cc43)c2=O)cc1,17.5
3,CCCNC(=O)C1Cc2cc(S(=O)(=O)N3CCCC3)ccc2N1C(C)=O (stereo not shown),11.3
4,COc1ccc(Cl)cc1NC(=O)CNCC(c1ccccc1)N(C)C.O=C(O)C(=O)O (stereo not shown),-49.3
5,COc1cc2c(cc1NC(=S)Nc1cccc(C)c1)oc1ccccc12,6.46
6,Nc1ccc2c(c1)C/C(=C/c1ccco1)C2=O,11
7,CN(Cc1nc2ccc(F)cc2[nH]1)C(=O)C1CCC(=O)N(C2CC2)C1 (stereo not shown),-7.32
8,COc1ccc(S(=O)(=O)Nc2cc(C)on2)cc1NC(C)=O,13.8
9,CC1(C)CC(=O)C2=C(C1)OC(N)=C(C#N)C2c1ccoc1 (stereo not shown),8.2
10,CC1CCN(CC(=O)Nc2ccc(Cl)cc2[N+](=O)[O-])CC1,13.6
11,CC1(OC(=O)c2ccco2)C(=O)C=C2C=C(c3ccc(C#N)cc3)OC=C2C1=O (stereo not shown),7.63
12,CC(OC(=O)CCCN=C1NS(=O)(=O)c2ccccc21)C(=O)Nc1ccc(F)cc1Cl (stereo not shown),-6.51
13,COc1ccc(S(=O)(=O)NCc2cccnc2)cc1C(=O)Nc1ccccc1,-9.32
14,COC(=O)c1ccc2nc(Nc3nc4c(F)cc(F)cc4s3)sc2c1,9.37
15,O=C(Nc1ccc2c(c1)Cc1ccccc1-2)c1ccccc1F,13.9
16,CCc1nonc1NC(=O)c1oc2ccccc2c1C,11.8
17,O=C(CSc1nnc(CSc2nc3ccccc3s2)o1)NC1CCCCC1,9.83
18,CCCC(c1nnnn1CCc1ccccc1)N1CCN(C(=O)c2ccco2)CC1 (stereo not shown),-16.4
19,Cc1ccc(NC(=O)CN2C(=O)NC(C)(CCc3ccccc3)C2=O)cc1 (stereo not shown),7.22

# — publication PMC4336329 (PLoS ONE, 2015)
